Measured values published in PubChem BioAssay AID493208 (National Center for Advancing Translational Sciences (NCATS), 2011).
Hit rate of the full screen: of about 44,000 compounds, about 340 (0.77%) were called active. Inconclusive results (about 5%) are left out. The call rests on the fitted dose curve; in most records, active means well fitted inhibition curve with a large enough effect; inconclusive means small, poorly fitted or top-dose-only effect; inactive means flat fitted curve, though single readings scatter. This is one part of the list.

experiment: Acumen qHTS Assay for Inhibitors of the mTORC1 Signaling Pathway in MEF (Tsc2-/-, p53-/-) Cells: Sytravon; details: phospho-rpS6 immunofluorescence/PI, 24 h; series mostly up to 38.3 µM; activity change, negative = inhibition: at the top concentration;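 further: plate controls were DMSO for no effect and rapamycin for full effect; nearly all actives have a fitted effect of over 50% in size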
Method in brief: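 Immunofluorescence of rpS6 phosphorylation in Tsc2-/-, p53-/- MEFs after 24 h compound exposure, normalized to propidium iodide signal. Activity is expressed as % positive cells, thresholded with 7.5 nM rapamycin.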

Activity change, negative = inhibition, inactive:
COc1cc(C2N=C(N)Nc3nc4ccccc4n32)ccc1OCC(=O)O (centres undefined) -13.9%, COc1ccc(-c2cc(C(C)=O)c(C)n2CCC(=O)Nc2ccc(C)cc2Cl)cc1 -9.17%, COc1ccc(-c2cc(C(=O)NCc3ccc(F)cc3)no2)cc1 -6.78%, COc1ccc(C(=O)NCC(c2ccc(N(C)C)cc2)N2CCCC2)cc1 (centres undefined) -4.66%, Cc1cc(C)cc(-n2ccnc2SCC(=O)Nc2ccc(C)cc2C)c1 -3.33%, CC(=O)c1ccc(N2CCN(c3nc4c(S(=O)(=O)c5ccc(C)c(C)c5)nnn4c4ccc(Cl)cc34)CC2)cc1 -0.789%, CCC(=O)N1CCc2cc(Br)cc(S(=O)(=O)CCC(=O)N3CCN(c4ccc(OC)cc4)CC3)c21 3.47%, CCC(C(=O)Nc1cc(OC)ccc1OC)n1c(=O)c(C(F)(F)F)nc2ccccc21 (centres undefined) -7.7%, CCOc1ccc2oc(=O)cc(CN3CCN(Cc4ccc(F)cc4)CC3)c2c1 -5.33%, O=C(CCCn1c(=O)c2ccccc2n(CC(=O)Nc2cccc(Cl)c2)c1=O)NCc1ccc2c(c1)OCO2 -1.75%, CCC(=O)Nc1ccccc1-c1nc2ccccc2n(C(C)C(=O)Nc2cccc(Cl)c2C)c1=O (centres undefined) -23.7%, CC(C)c1ccc(Nc2ncnc3c2nc2n3CCCC2)cc1 -10.8%, COc1cc(NC(=O)CNC(=O)Cn2ccc3ccccc3c2=O)cc(OC)c1OC 0%, Cc1ccc(Cc2cnc(NC(=O)C3Cc4ccc(C)cc4C(=O)O3)s2)cc1 (centres undefined) 14.2%, COC(=O)c1cnn(-c2ccc(C(=O)Nc3ccc(OC(F)(F)F)cc3)cc2)c1N -1.33%, CCc1ccc(NC(=O)CN2CCSc3ccc(S(=O)(=O)N4CCCC4)cc32)cc1 -0.245%, COc1ccc(C(CNC(=O)c2cccc([N+](=O)[O-])c2)N2CCOCC2)cc1 (centres undefined) -4.62%, Cc1ccc(CNC(=O)Cn2c(=O)ccc3cc(S(=O)(=O)N4CCCC4)ccc32)cc1 1.39%, CCOc1ccc(S(=O)(=O)c2cn(C)c3ccccc3c2=O)cc1 2.49%, CCN(C(=O)c1cccn(Cc2ccccc2C)c1=O)c1ccccc1 0.576%, CN(C)c1ccc(NC(=O)CN2C(=O)c3ccccc3Sc3ccc(C(=O)N4CCCC4)cc32)cc1 -2.99%, CCOC(=O)C1CCN(C(=O)Cn2ncc3c4ccccc4n(Cc4ccccc4F)c3c2=O)CC1 -5.15%, Cc1ccc(NC(=O)CN2C(=O)CCn3nc(-c4cccn4C)cc32)c(Cl)c1 -4.67%, Cc1nn(CCCC(=O)NCc2cccc(Cl)c2)c(=O)c2c1sc1ccccc12 0.241%, Cc1nnc(NC(=O)CSc2nnc3c(n2)[nH]c2ccccc23)s1 -8.92%, Cc1cccc(N2CCN(CCCNC(=O)c3sc4ncccc4c3-n3cccc3)CC2C)c1 (centres undefined) -8.93%, O=c1n(Cc2ccc(F)cc2)nc2n1-c1cc(Cl)ccc1OC2 -5.8%, Cc1ccc(F)cc1NC(=O)c1ccc(Cn2nc(N3CCN(c4ccccc4)CC3)ccc2=O)o1 -4.91%, CCOc1ccccc1CNC(=O)c1cnc2c(-c3ccc(OCC)c(OCC)c3)c(C)nn2c1C -2.88%, COc1ccc(NC(=O)C2CCN(c3nc4ccccc4nc3C(F)(F)F)CC2)cc1 4.54%, COc1ccc(-c2cn3nc(N4CCC(C(=O)Nc5ccc(Cl)cc5C)CC4)sc3n2)cc1 0.715%, Cc1oc(-c2ccc(C(=O)NCCc3ccc(Cl)cc3)cc2)nc1CSc1ccccc1 -1.42%, Cc1ccc(-c2nc(SCC(=O)N3CCc4ccccc43)c3c(=O)n(C)c(=O)n(C)c3n2)cc1 2.53%, COCCCNC(=O)c1c(NC(=O)c2cc(=O)c3ccccc3o2)sc2c1CCCC2 -1.97%, Cc1ccc(N2CCN(c3c(CN4CCCC4)c(=O)oc4ccccc34)CC2)c(C)c1 4.15%, Cc1ccc(S(=O)(=O)n2nc(C)c(S(=O)(=O)N3CCC(C)CC3)c2C)cc1 -0.672%, O=C(NCc1ccccc1)c1ccc2c(c1)N(Cc1cccc(Cl)c1)C(=O)c1ccccc1S2(=O)=O -0.126%, CCOC(=O)C1CCC(CN(Cc2c(Cl)cccc2Cl)S(=O)(=O)c2ccc(Cl)cc2)CC1 (centres undefined) 1.02%, CCn1ccc2cc(S(=O)(=O)N3CCC(C(=O)NCc4ccc(OC)cc4)CC3)ccc21 0.983%, Cc1ccc2nc(-c3ccc(Cl)c(NC(=O)c4cccc([N+](=O)[O-])c4C)c3)oc2c1 -1.04%, Cc1ccccc1CN1C(=O)c2ccccc2Sc2ccc(C(=O)OCc3ccco3)cc21 0%, COc1cc(/C=C/c2nc3cc(Cl)ccc3c(=O)n2-c2cccc(C(F)(F)F)c2)cc(OC)c1OC 9.64%, COc1ccc(Cn2c(SCC(=O)Nc3ccc(OC)cc3)nc3ccccc32)cc1 4.11%, O=C(COCc1cc(-c2ccco2)on1)Nc1cccc(O)c1 -5.4%, Cn1c(=O)c(=O)n(C)c2cc(S(=O)(=O)CCC(=O)Nc3cccc(C(F)(F)F)c3)ccc21 -1.21%, COc1cc(OC)c(N(C)C(=O)C2CCCN(c3ncnc4c3nc3n4CCCCC3)C2)cc1Cl (centres undefined) 0.0361%, Cc1ccc(-c2nc3c(cnn3-c3ccccc3)c(=O)n2-c2cccc(Cl)c2)cc1 9.77%, CN(C)S(=O)(=O)c1ccc2c(c1)N(CC(=O)N1CCN(c3cccc(Cl)c3)CC1)CCS2 -2.05%, COc1cc(NC(=O)Nc2nnc(N3CCCCCC3)s2)cc(OC)c1 0.778%, CC1CCCN(Cc2c(O)ccc3c(=O)c(Oc4ccc(C(C)(C)C)cc4)c(C(F)(F)F)oc23)C1 (centres undefined) 1.75%, Cc1c(NC(=O)CC(C)C)cccc1-c1nc2cccnc2s1 -0.974%, O=C(CSc1cn(CCNC(=O)c2ccccc2F)c2ccccc12)Nc1ccccc1F -2.33%, COc1cccc(-n2c(SCC(=O)Nc3cccc(Cl)c3)nc3c(oc4ccccc43)c2=O)c1 0.997%, COc1ccc(/C=C\C(=O)NC2CC(=O)N(c3ccc(F)cc3)C2)cc1OC (centres undefined) -0.622%, CCOc1ccccc1CNC(=O)c1ccc(-c2nc(CSc3ccc(C)cc3)c(C)o2)cc1 -1.57%, COc1ccc(-n2c(=O)c3c(C)c(C)sc3n(CC(=O)NCc3ccc(C)cc3)c2=O)c(OC)c1 5.87%, O=C(NCc1ccc(F)cc1)C1CCCN(c2ncnc3onc(-c4ccc(F)cc4)c23)C1 (centres undefined) 4.42%, COc1ccc(Cl)cc1NC(=O)CSC1=Nc2ccccc2C2=NC(CC(=O)NC3CCCCC3)C(=O)N12 (centres undefined) 2.22%, CCOC(=O)CNC(=O)c1ccc(-c2nn(C)c(=O)c3ccccc23)cc1 -12.4%, CCc1ccc(NCc2cc3ccc(OC)cc3n(CC(=O)Nc3ccc(C(C)C)cc3)c2=O)cc1 -18.9%, Cc1ccc(NC(=O)c2ccc3oc(=O)c(S(=O)(=O)c4ccccc4)cc3c2)cc1C 2.06%, Cc1ccc(NC(=O)Cn2nnc(-c3nc(-c4ccncc4)no3)c2N)c(C)c1 -7.2%, COc1ccccc1NC(=O)C1=C(C)Nc2nc(SCc3ccc(Cl)cc3)nn2C1c1ccccc1Cl (centres undefined) -14.3%, CCOC(=O)C1CCN(C(=O)CN2c3ccc(C(C)C)cc3-c3ccccc3S2(=O)=O)CC1 -0.144%, CCOc1ccc(OC(=O)c2cn(-c3cccc(OC)c3)c(=O)c3ccccc23)cc1 0.778%, CC1CCN(C(=O)c2cc3c(=O)n(C)c4ccccc4c3s2)CC1 -16.3%, COc1cc(C2NC(=O)N(C)C3=C2C(=O)N(c2cccc(Cl)c2)C3)ccc1O (centres undefined) 0.539%, CCOC(=O)c1c(NC(C)=O)c2c3c(sc2n1Cc1ccc(Cl)cc1)CCCC3 -0.594%, CC(=O)c1cccc(NC(=O)C2=CC(c3ccc4c(c3)OCO4)=NS(=O)(=O)N2C)c1 -0.155%, CC1CCCCN1CCCNC(=O)c1[nH]c2ccccc2c1Sc1ccc(Cl)cc1 (centres undefined) -2.34%, COc1ccccc1CNC(=O)CCC1N=C2c3ccccc3N=C(SCC(N)=O)N2C1=O (centres undefined) 2.29%, Fc1ccccc1-n1ncc2c1ncn1nc(-c3ccccc3Cl)nc21 3.65%, Cc1cccc(CNC(=O)C(=O)Nc2ccccc2C)c1 2.89%, Cc1ccc(CNC(=O)c2ccc(CSCc3ccccc3Cl)o2)cc1 -1.39%, Cc1cccc(C)c1NC(=O)CSc1nc2ncccc2o1 1.28%, Cc1ccc(S(=O)(=O)NCC(c2ccc(N(C)C)cc2)N2CCc3ccccc32)cc1C (centres undefined) -13.8%, CC(=O)N1CCc2cc(CNC(=O)Nc3cc(Cl)ccc3C)ccc21 0.679%, COc1ccc(Cn2c(CCC(=O)Nc3cccc(OC)c3)nc3cccnc32)cc1 -4.41%, CCc1ccc(CNC(=O)C2CCN(c3nc4ccccc4nc3C(F)(F)F)CC2)cc1 -5.11%, COC(=O)Cc1c(C)c2cc3c(c(C)c2oc1=O)OCN(CCc1ccccc1F)C3 1.46%, CCN1C(=O)c2ccccc2Sc2ccc(NC(=O)Nc3ccccc3OC)cc21 -12.5%, Cc1ccc(NC(=O)c2c(NC(=O)Cc3ccccc3)sc3c2CCC3)cc1 0.401%, COc1ccc2cc(-c3nc(Cl)c4c5c(sc4n3)CCCC5)c(=O)oc2c1 -13.1%, CN(C)c1ccc(-c2nc3cnccn3c2Nc2cccc(C(F)(F)F)c2)cc1 -0.741%, COc1cccc(CNc2nccn(-c3cc(C)cc(C)c3)c2=O)c1 8.21%, Cc1cc2c(cc1S(=O)(=O)CCC(=O)N1CCCC(C)C1)OCC(=O)N2 (centres undefined) -1.63%, CCCCN(CCCNC(=O)c1ccc(Sc2ccc(Cl)cc2)c(NC(C)=O)c1)c1ccccc1 11.2%, Cc1ccc(NC(=O)CSC2=Nc3ccccc3C3=NC(Cc4ccccc4)C(=O)N23)cc1C (centres undefined) 2.41%, Cc1ccc(-n2ncc(C(=O)NCCN3CCOCC3)c2C2CCN(C(=O)OC(C)(C)C)CC2)c(C)c1 0.833%, COCCn1c(CCC(=O)Nc2ccc(C)c(Cl)c2)nc2cccnc21 0.757%, Cc1c(Cl)cccc1NC(=O)Cn1cc(C(=O)C2CCCCC2)c2ccccc21 -22.8%, CCSc1ncc(Cl)c(C(=O)Nc2ccc(S(=O)(=O)N3CCC(C)CC3)cc2)n1 -16.6%, Clc1ccc2nc(NCc3ccccc3)c3nncn3c2c1 0.677%, COc1ccccc1CNC(=O)CCc1c(C)nc2c(c(C)nn2-c2ccc(C)c(C)c2)c1C -13.2%
